Reference: PubChem BioAssay AID1345083 (National Center for Advancing Translational Sciences (NCATS), 2018)
The campaign covered roughly 94,000 compounds. About 6,200 (6.6%) were called active. The shares of active, inactive and inconclusive entries below differ from those in the screen. Calls follow the shape of the dose curve; as a rule, active = well fitted inhibition curve with a large enough effect; inconclusive = small, poorly fitted or top-dose-only effect; inactive = flat fitted curve, though single readings scatter. Potencies beside an inconclusive call are fits to weak or partial responses and may not hold up.

Experiment: Cytotoxic Profiling in HEK 293 Cell Line of Diverse Libraries Using Quantitative High-Throughput Screening; also: nearly all actives have a fitted effect of over 60% in size
Settings: HEK 293 viability, ATP luminescence (CellTiter-Glo), 48-72 h; activity change, negative = cytotoxicity: at 115 µM (top of the series) unless noted; series mostly up to 115 µM
In short: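 Read-out: CellTiter-Glo ATP luminescence. Cells: HEK 293, 250 cells/well. Exposure: 48 or 72 hr, 37 degree Celsius.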
% is scaled to controls: 0 for no effect and ±100 for the full control effect; potency is read from the fitted curve at half-maximal effect; tags tell the direction and shape of the fitted curve.

Question: For `CN(C)CC(=O)N1Cc2ccccc2CC2(CCN(CC3CCOCC3)C2)C1` (stereo not drawn), which Potency is on record?
Answer: inconclusive: 89.1 µM [inhibitor, single point]

Question: For `Cc1cc(C)nc(SCc2ccc(C(=O)N3CCCC[C@H](N(C)C)C3)o2)n1`, which Potency is on record?
Answer: inconclusive: 50.1 µM [inhibitor, partial curve, poor fit]

Question: Which Potency does the source give for `CCN(CC)c1cc(CCC(=O)N2CCN(c3cccc(OC)c3)CC2)ccn1` here?
Answer: inconclusive: 89.1 µM [inhibitor, single point]

Question: With `CCOc1ccc(S(=O)(=O)N2CCCN(C)c3ccccc32)cc1` as the molecule, how does the Potency read?
Answer: inconclusive: 50.1 µM [inhibitor, partial curve, poor fit]

Question: With `COc1ccc(NC(=O)C2CN(C3CCCCC3)C(=O)N2)cc1OC` (stereo not drawn) as the molecule, how does the “activity change, negative = cytotoxicity” value read?
Answer: inactive: -7.47%

Question: Which Potency does the source give for `CCOC(=O)c1ccccc1NC(=O)CN1C(=O)NC(c2ccc(Cl)cc2)C2=C1COC2=O` (stereo not drawn) here?
Answer: inconclusive: 20 µM [inhibitor, full curve, poor fit]

Question: For `COc1ccccc1-c1ccc(CN2CCCCC2C(=O)NC(C)C)cc1` (stereo not drawn), which Potency is on record?
Answer: active: 79.4 µM

Question: With `O=C(c1ccc(Cl)cc1)N1CCn2c(nn(-c3ccc(Cl)cc3)c2=O)C1` as the molecule, how does the “activity change, negative = cytotoxicity” value read?
Answer: inactive: -22.9%

Question: With `CNc1nccc(N2CCC(CC(=O)NCc3cc(OC)cc(OC)c3)CC2)n1` as the molecule, how does the Potency read?
Answer: inconclusive: 89.1 µM [inhibitor, single point]

Question: With `COc1ccc(CN2C[C@@H](F)[C@@H](OCc3nc4ccc(C(F)(F)F)cc4[nH]3)C2)cn1` as the molecule, how does the Potency read?
Answer: inconclusive: 56.2 µM [inhibitor, partial curve, poor fit]

Question: For `CN1C(=O)CCC2(CNC(=O)NC3CCCC3)CCC=C12` (stereo not drawn), which “outcome” value is on record?
Answer: inactive

Question: With `c1cncc(-c2nc3c(c(NCc4ccccc4-n4ccnc4)n2)CNC3)c1` as the molecule, how does the “activity change, negative = cytotoxicity” value read?
Answer: inactive: -15.6%

Question: For `COc1cccc(NC(=O)NC[C@@H]2C=C(C)[C@H](CC(=O)N3CCN(c4ccccn4)CC3)C[C@H]2C(C)C)c1`, which Potency is on record?
Answer: inconclusive: 20 µM [inhibitor, full curve, poor fit]

Question: With `Cc1ccc(CN(C)C(=O)CC(c2ccccc2)c2ccc3c(c2)OCO3)o1` (stereo not drawn) as the molecule, how does the Potency read?
Answer: inconclusive: 50.1 µM [inhibitor, partial curve, poor fit]

Question: With `COc1ccc(CC(=O)NC2CCN(c3nccc(Nc4ccccc4OC)n3)CC2)cc1` as the molecule, how does the Potency read?
Answer: inconclusive: 50.1 µM [inhibitor, partial curve, poor fit]

Question: Which Potency does the source give for `COc1ccc(NC(=O)CCC2CCCN(C(=O)C3=C(C)OCCO3)C2)cc1Cl` (stereo not drawn) here?
Answer: inconclusive: 89.1 µM [inhibitor, single point]

Question: With `COc1ccccc1-c1cccc(C(=O)N2CCC[C@H]2C(=O)NCC2CC2)c1` as the molecule, how does the Potency read?
Answer: inconclusive: 112 µM [inhibitor, single point]

Question: Which “activity change, negative = cytotoxicity” value does the source give for `O=C(C1CCCCC1)N1CCCC2(CNc3ncccc3[S+](=O)([O-])N2)C1` (stereo not drawn) here?
Answer: inactive: -8.22%

Question: For `Cc1ccc(C(=O)N2CCC3(CCC(=O)N(CC4CC4)CC3)CC2)cc1F`, which Potency is on record?
Answer: inconclusive: 89.1 µM [inhibitor, single point]

Question: For `CCCn1c(C)cnc1CC1CCCN(S(=O)(=O)c2cccs2)C1` (stereo not drawn), which Potency is on record?
Answer: inconclusive: 56.2 µM [inhibitor, partial curve, poor fit]

Question: For `Cc1cc(CN(C)C2CCCc3ccccc32)no1` (stereo not drawn), which Potency is on record?
Answer: inconclusive: 126 µM [inhibitor, single point]

Question: With `C[S+](=O)([O-])N1CCC2(CCN(Cc3cccs3)c3ccccc3O2)CC1` as the molecule, how does the Potency read?
Answer: inconclusive: 56.2 µM [inhibitor, partial curve, poor fit]

Question: With `O=C(NC1CCC(O)CC1)c1ccc(-c2ncc3cnc(-c4cccc(F)c4)cn23)cc1` (stereo not drawn) as the molecule, how does the Potency read?
Answer: active: 70.8 µM

Question: With `CN1C(=O)CC(C(=O)O)C12CCN(C(=O)NCCc1ccccc1)CC2` (stereo not drawn) as the molecule, how does the Potency read?
Answer: inconclusive: 31.6 µM [inhibitor, single point]

Question: For `C=CCNC(=O)[C@@H]1Cc2cn(Cc3nccn3C)c3cccc(c23)[C@H](CC(C)C)N1`, which Potency is on record?
Answer: inconclusive: 50.1 µM [inhibitor, full curve, poor fit]

Question: Which Potency does the source give for `O=C(COc1ccccc1)NC[C@H]1O[C@H](Cc2cc(-c3ccccc3)on2)CC[C@@H]1O` here?
Answer: inconclusive: 112 µM [inhibitor, partial curve, poor fit]

Question: With `Cc1nc(C)c(CN2CCOC[C@H](Oc3ccc(S(C)(=O)=O)cc3)C2)s1` as the molecule, how does the Potency read?
Answer: inconclusive: 63.1 µM [inhibitor, partial curve, poor fit]

Question: For `CC(C)c1noc(-c2cn(C3CCN(C(=O)c4ccc5[nH]ccc5c4)CC3)nn2)n1`, which “activity change, negative = cytotoxicity” value is on record?
Answer: inactive: -23.7%

Question: For `CCOC(=O)N1CCC(N2CCN(c3cc(C(C)C)nc(C)n3)CC2)CC1`, which Potency is on record?
Answer: inconclusive: 89.1 µM [inhibitor, single point]

Question: For `O=C(NCc1cccnc1)c1ccc2c(c1)n(Cc1ccc(F)cc1)c(=O)c1ccnn12`, which Potency is on record?
Answer: inconclusive: 10 µM [inhibitor, full curve, poor fit]

Question: For `CC(C)CN1CC(CNC(=O)c2ccc(Oc3ccccc3)cc2)Oc2ccnc(-c3ccc(OCC(=O)O)cc3)c2C1=O` (stereo not drawn), which “outcome” value is on record?
Answer: inactive

Question: For `CCCNC(=O)N1CCN2C(=O)c3cc(-c4cccc(C(F)(F)F)c4)ccc3NC(=O)[C@@H]2C1`, which Potency is on record?
Answer: inconclusive: 89.1 µM [inhibitor, single point]

Question: With `Cc1onc(-c2cnn(C)c2NCc2ccc(C#N)cc2)c1C(=O)N1CCN(C)CC1` as the molecule, how does the “activity change, negative = cytotoxicity” value read?
Answer: inactive: -6.43% [at 172 µM]

Question: For `O=C(Cn1c(=O)oc2ccccc21)N1CCC(N2CC3CC(C2)[C@H]2CCCC(=O)N2C3)CC1` (stereo partly drawn), which “activity change, negative = cytotoxicity” value is on record?
Answer: inactive: 8.77%

Question: For `CCOC(=O)c1ccc(NC(=O)Cn2c(N3CCc4ccccc4C3)nc(C)cc2=O)cc1`, which Potency is on record?
Answer: active: 31.6 µM

Question: Which Potency does the source give for `COc1ccc(-c2noc(CC3CCN(C(=O)c4ccccc4OC)CC3)n2)cc1` here?
Answer: inconclusive: 39.8 µM [inhibitor, partial curve, poor fit]

Question: With `O=C1N(C2CCN(S(=O)(=O)c3ccccc3)CC2)C(c2ccncc2)C12CCCCC2` (stereo not drawn) as the molecule, how does the Potency read?
Answer: inconclusive: 89.1 µM [inhibitor, single point]

Question: For `CC(C)NC(=O)CCc1nnc(-c2cccc(OC(C)C)c2)[nH]c1=O`, which “activity change, negative = cytotoxicity” value is on record?
Answer: inactive: -2.64%

Question: Which “activity change, negative = cytotoxicity” value does the source give for `Cc1ccc(S(=O)(=O)N2CC(C(=O)NCc3ccncc3)C3(CCOCC3)C2)c(C)c1` (stereo not drawn) here?
Answer: inactive: -23.8%

Question: For `O=C1CC2(CCN(C(=O)C3CCN(C(=O)Cc4ccc(F)cc4)CC3)CC2)Oc2ccccc2N1`, which Potency is on record?
Answer: inconclusive: 50.1 µM [inhibitor, partial curve, poor fit]

Question: For `O=C(NC1CCCc2c1[nH]c1ccc(Cl)cc21)c1ccncc1` (stereo not drawn), which Potency is on record?
Answer: active: 22.4 µM

Question: Which “activity change, negative = cytotoxicity” value does the source give for `CCC(=O)N(C1CCOCC1)C1CCN(S(=O)(=O)c2ccc(F)c(F)c2)CC1` here?
Answer: inactive: 0.547%

Question: Which Potency does the source give for `O=C([C@@H]1Cc2nc[nH]c2CN1Cc1cccc(OC(F)(F)F)c1)N1CCOCC1` here?
Answer: inconclusive: 126 µM [inhibitor, single point]

Question: With `O=C(c1ccc(C(F)(F)F)cc1)N1CCC2(CNc3ccccc3[S+](=O)([O-])N2)C1` (stereo not drawn) as the molecule, how does the Potency read?
Answer: inconclusive: 56.2 µM [inhibitor, partial curve, poor fit]

Question: With `COc1ccc2[nH]c3c(c2c1)CCN(C)C31CCN(C(=O)c2cc(C)[nH]n2)CC1` as the molecule, how does the Potency read?
Answer: inconclusive: 89.1 µM [inhibitor, single point]

Question: For `COCc1nc(CCNC(=O)c2ccc(OC)cc2)no1`, which “activity change, negative = cytotoxicity” value is on record?
Answer: inactive: 18.8%

Question: For `Cn1ncc2c(C(=O)Nc3cccc(Cl)c3)cc(-c3cccc(F)c3)nc21`, which Potency is on record?
Answer: active: 35.5 µM

Question: For `Cc1ccccc1N(C)C1CN(Cc2ccccc2)C1`, which Potency is on record?
Answer: inconclusive: 50.1 µM [inhibitor, partial curve, poor fit]

Question: With `Cc1ccc(C(=O)NC(C(=O)NC2CC2)C2CCN(C(=O)c3ccc4c(c3)OCO4)CC2)cc1` (stereo not drawn) as the molecule, how does the “activity change, negative = cytotoxicity” value read?
Answer: inactive: -9.12%

Question: With `COc1cccc(N2C(=O)NC(=NC3CCCCC3)C23CCN(CC2CCCCC2)CC3)c1` as the molecule, how does the Potency read?
Answer: inconclusive: 56.2 µM [inhibitor, partial curve, poor fit]

Question: For `CCC1Oc2ccc(NC(=O)C3CCCC3)cc2CN(Cc2ccc(F)cc2Cl)C1=O` (stereo not drawn), which Potency is on record?
Answer: inconclusive: 56.2 µM [inhibitor, partial curve, poor fit]

Question: Which Potency does the source give for `O=c1c2nc(-c3ccsc3)ccc2ncn1-c1ccc(F)cc1F` here?
Answer: active: 100 µM

Question: With `Cc1cc(C)cc(-c2ccc(CN3CCCC3C(=O)Nc3cccc(Cl)c3)cc2)c1` (stereo not drawn) as the molecule, how does the Potency read?
Answer: inconclusive: 50.1 µM [inhibitor, partial curve, poor fit]

Question: Which Potency does the source give for `O=C(Cc1cccc(C(F)(F)F)c1)N1CCCc2ncc(C(=O)N3CCC[C@@H]3c3ccc(F)cc3)cc21` here?
Answer: inconclusive: 56.2 µM [inhibitor, partial curve, poor fit]

Question: With `Cc1noc(C)c1S(=O)(=O)NCC(=O)N1CCCCCCNC(=O)CC1c1ccccc1` (stereo not drawn) as the molecule, how does the “activity change, negative = cytotoxicity” value read?
Answer: inactive: -3.28%

Question: With `O=C(NCCc1cccs1)C1CCN(c2cc(C(F)(F)F)ncn2)CC1` as the molecule, how does the Potency read?
Answer: inconclusive: 39.8 µM [inhibitor, full curve, poor fit]

Question: Which “outcome” value does the source give for `O=C(c1nnc(CN2CCN(c3ccccn3)CC2)n1-c1cccnc1)N1CCC[C@@H]1c1cccc(F)c1` here?
Answer: inactive

Question: For `Cc1cc(=O)n(CC(=O)NCc2ccccc2Br)c(N2CCc3ccccc3C2)n1`, which Potency is on record?
Answer: active: 39.8 µM

Question: With `COc1ccc(OCC2(C)COc3ccc(C(=O)NCC(C)C)cc3N2)cc1` (stereo not drawn) as the molecule, how does the Potency read?
Answer: inconclusive: 89.1 µM [inhibitor, partial curve, poor fit]

Question: With `c1ccc(Nc2cc3c(cn2)CN(Cc2ccc4[nH]ccc4c2)CCN3)cc1` as the molecule, how does the Potency read?
Answer: active: 39.8 µM

Question: Which Potency does the source give for `c1ccc(CC2=NOC3(CCN(Cc4ccccc4)C3)C2)cc1` (stereo not drawn) here?
Answer: inconclusive: 126 µM [inhibitor, single point]

Question: For `COc1ccc2c(c1)OCC(CNC(=O)c1ccc(-c3nnn(C)n3)cc1)C2` (stereo not drawn), which Potency is on record?
Answer: inconclusive: 79.4 µM [inhibitor, partial curve, poor fit]

Question: Which Potency does the source give for `CCC1Oc2ccc(NC(=O)Cc3ccccc3)cc2CN(Cc2ccc(F)cc2)C1=O` (stereo not drawn) here?
Answer: inconclusive: 50.1 µM [inhibitor, partial curve, poor fit]
